From PubChem BioAssay AID1347165 (National Center for Advancing Translational Sciences (NCATS), 2019)
The campaign covered roughly 220,000 compounds. About 5,700 (2.6%) were called active. The shares of active, inactive and inconclusive entries below differ from those in the screen. The call rests on the fitted dose curve; in most records, active means well fitted inhibition curve with a large enough effect; inconclusive means small, poorly fitted or top-dose-only effect; inactive means no such curve, though single readings can be large or run the other way. Where the call is inconclusive, the potency comes from a doubtful curve fit.

The molecules below were run against Lysine-specific demethylase 5B (Homo sapiens) (UniProt Q9UGL1) (assay: Primary screen for KDM5B Histone Demethylases FDH-coupled qHTS). Conditions: FDH-coupled NADH fluorescence (FDH is formaldehyde dehydrogenase); activity change, negative = inhibition: at 57.7 µM (top of the series) unless noted.
Sequence of UniProt Q9UGL1 (Q9UGL1 whole entry, looked up): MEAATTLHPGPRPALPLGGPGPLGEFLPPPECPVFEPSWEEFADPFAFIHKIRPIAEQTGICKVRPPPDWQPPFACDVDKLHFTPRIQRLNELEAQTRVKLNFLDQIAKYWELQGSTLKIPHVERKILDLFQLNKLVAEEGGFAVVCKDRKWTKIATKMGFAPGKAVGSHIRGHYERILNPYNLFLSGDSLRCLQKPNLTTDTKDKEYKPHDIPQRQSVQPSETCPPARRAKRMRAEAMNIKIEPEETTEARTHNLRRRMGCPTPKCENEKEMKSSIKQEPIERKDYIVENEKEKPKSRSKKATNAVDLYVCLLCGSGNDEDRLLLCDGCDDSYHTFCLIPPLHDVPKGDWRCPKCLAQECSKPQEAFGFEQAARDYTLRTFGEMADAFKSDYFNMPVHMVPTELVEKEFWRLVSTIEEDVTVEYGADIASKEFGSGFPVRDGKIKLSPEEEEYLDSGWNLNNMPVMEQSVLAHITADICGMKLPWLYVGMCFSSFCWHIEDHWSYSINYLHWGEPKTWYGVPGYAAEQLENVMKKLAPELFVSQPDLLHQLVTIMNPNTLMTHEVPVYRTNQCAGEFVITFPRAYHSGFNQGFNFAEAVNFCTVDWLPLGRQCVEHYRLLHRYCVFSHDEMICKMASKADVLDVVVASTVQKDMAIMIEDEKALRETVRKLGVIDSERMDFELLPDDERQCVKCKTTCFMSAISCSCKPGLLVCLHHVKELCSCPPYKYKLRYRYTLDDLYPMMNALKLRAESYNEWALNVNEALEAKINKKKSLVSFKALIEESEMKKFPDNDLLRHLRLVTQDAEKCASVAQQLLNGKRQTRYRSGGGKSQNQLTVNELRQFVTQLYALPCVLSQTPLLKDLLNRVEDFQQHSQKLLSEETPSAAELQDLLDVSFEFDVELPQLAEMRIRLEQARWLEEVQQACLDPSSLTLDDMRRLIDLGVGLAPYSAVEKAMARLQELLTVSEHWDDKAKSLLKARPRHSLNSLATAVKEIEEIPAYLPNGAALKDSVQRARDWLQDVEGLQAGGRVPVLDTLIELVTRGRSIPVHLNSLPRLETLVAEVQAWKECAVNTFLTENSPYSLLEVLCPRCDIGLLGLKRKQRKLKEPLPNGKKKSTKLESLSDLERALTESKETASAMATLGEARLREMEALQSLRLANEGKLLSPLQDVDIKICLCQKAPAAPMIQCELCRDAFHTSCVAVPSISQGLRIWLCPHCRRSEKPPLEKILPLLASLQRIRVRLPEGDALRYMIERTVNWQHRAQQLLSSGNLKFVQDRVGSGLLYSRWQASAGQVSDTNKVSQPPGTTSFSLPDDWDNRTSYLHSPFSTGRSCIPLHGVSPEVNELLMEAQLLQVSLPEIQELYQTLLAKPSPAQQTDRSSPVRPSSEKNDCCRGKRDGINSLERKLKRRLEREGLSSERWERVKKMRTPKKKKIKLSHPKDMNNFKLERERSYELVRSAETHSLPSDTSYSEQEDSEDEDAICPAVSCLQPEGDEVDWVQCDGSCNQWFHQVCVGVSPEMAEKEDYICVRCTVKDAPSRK
How it was run: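 qHTS format, multiple compound concentrations. Buffer 50 mM HEPES pH 7.5/0.01% Tween-20; 200 nM KDM5BΔAP final; 10 min compound preincubation; substrate-mix levels 12.5 µM peptide, 25 µM α-KG, 0.25 mM NAD⁺; 30 min RT; ΔRFU.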
Further: nearly all actives have a fitted effect of over 70% in size.
Potency means the concentration at half of the fitted maximal effect; tags describe the fitted curve by direction and shape.
Wherever activity change, negative = inhibition is given: 0% is about no effect.

SMILES | activity change, negative = inhibition | Potency
C=CCOc1cccc(NC(=O)c2ccccc2Br)c1 | inactive: 0.707% | 
CC(Sc1n[nH]c(=O)n1C1CC1)C(=O)c1ccc(F)cc1 (stereo not given) | inactive: -9.71% | 
CC(C)Cn1cc(/C=C2\SC(=O)N(C(C)C)C2=O)c2ccccc21 | inactive: 6.73% | 
CCc1ccc(C2C(C#N)=C(N)N(N3CCOCC3)C3=C2C(=O)CC(C)(C)C3)cc1 (stereo not given) | inactive: 5.5% | 
COc1nc2nc(CC3CC3)n(C)c2cc1-c1cccc(NC(C)=O)c1 |  | active: 35.5 µM
COc1ccc(C(C)NC(=O)NCc2ccn[nH]2)cc1OC (stereo not given) | inactive: 10.7% | 
COC(=O)CNC(=O)N1CCOc2ccc(CN3CCc4ccccc4C3)cc2C1 |  | inconclusive: 12.6 µM [inhibitor, partial curve]
Cc1ccccc1CC(=O)Nc1ccc(S(=O)(=O)N2CCN(C)CC2)cc1 |  | inconclusive: 1.78 µM [inhibitor, full curve, poor fit]
COCCNC(=O)[C@@H]1C[C@@H](O)CN1C1CCN(C(=O)CC(C)C)CC1 | inactive: -21.4% | 
N#Cc1nc(-c2ccccc2Cl)oc1NC1CC1 |  | inconclusive: 20 µM [inhibitor, partial curve, poor fit]
CCC(CC)NC(=O)C1CCCN(Cc2ccncc2)CCC(=O)NCC1 (stereo not given) |  | inconclusive: 31.6 µM [inhibitor, partial curve, poor fit]
N[C@@H](Cc1ccccc1)c1nnc(SCc2ccc(Br)cc2)o1 | inactive: -8.57% | 
COc1ccc(C)cc1C(=O)CCC(=O)NCCc1ccc(S(N)(=O)=O)cc1 |  | inconclusive: 35.5 µM [inhibitor, partial curve, poor fit]
Cc1ccc(-c2cnc(SCC(=O)Nc3ccc(Cl)cc3)o2)cc1C |  | inconclusive: 39.8 µM [inhibitor, single point]
CCn1cc(Cl)c(C(=O)N2CCc3c(nc(-c4ccccc4)[nH]c3=O)C2)n1 |  | inconclusive: 6.31 µM [inhibitor, single point]
CCOC(=O)NCc1ccc(OC)cc1 | inactive: 8.92% | 
Cn1ncc2c(C(=O)N3CCCC3)cc(C(C)(C)C)nc21 | inactive: -20% [at 149 µM] | 
O=C(NCC(c1cccs1)N1CCCC1)c1cc(=O)c2ccc(Br)cc2o1 (stereo not given) | inactive: 9.69% | 
CCOc1ccc(-c2nc(C3CC(=O)N(c4ccc(Cl)cc4)C3)no2)cc1 (stereo not given) |  | active: 31.6 µM
c1ccc2c(c1)Oc1cccc3cccc-2c13 |  | inconclusive: 28.2 µM [inhibitor, partial curve, poor fit]
CCN(CC)c1cc(CCC(=O)NCc2ccccc2C)ccn1 |  | inconclusive: 22.4 µM [inhibitor, single point]
O=C(c1ccc(N2CCCC(O)C2)nc1)N1CCC(N2CCOCC2)CC1 (stereo not given) |  | inconclusive: 14.1 µM [inhibitor, partial curve, poor fit]
O=S(=O)(Nc1ccc(F)c(Cl)c1)c1ccc(Br)s1 |  | inconclusive: 28.2 µM [inhibitor, single point]
C=CCNC(=S)Nc1ccc(SC(F)F)cc1 | inactive: -23.9% | 

SMILES | activity change, negative = inhibition | Potency
CCOC(=O)C(CC)n1nc(C)c2c(C)n(-c3ccc(C)cc3)nc2c1=O (stereo not given) | inconclusive: -33% [inhibitor] | 
CCn1nc(C(=O)OC2CCCCC2)c2ccccc2c1=O | inactive: 10.1% | 
Cn1c(=O)[nH]c(=O)c2c1nc(SCCN1CCCCC1)n2CCc1ccccc1 |  | inconclusive: 22.4 µM [inhibitor, partial curve, poor fit]
N#C/C(=C\c1cccn1-c1cccc(Br)c1)c1ccccc1 | inactive: -19.4% | 
CCCCc1c(C)nc2c(-c3ccc(Cl)cc3)c(C)[nH]n2c1=O |  | inconclusive: 0.891 µM [inhibitor, partial curve, poor fit]
COc1cc(OC)cc(C(=O)Nc2ccc(-c3nc4cc(C(C)C)ccc4o3)cc2)c1 |  | inconclusive: 31.6 µM [inhibitor, partial curve, poor fit]
Cc1ccc(C)c(N2CCN(S(=O)(=O)c3ccc(-c4coc(C)n4)cc3)CC2)c1 |  | inconclusive: 31.6 µM [inhibitor, partial curve, poor fit]
COc1ccc2cnn(CC(=O)Nc3ccccc3)c(=O)c2c1OC |  | inconclusive: 25.1 µM [inhibitor, single point]
CC[C@H]1CN(S(=O)(=O)c2ccc(OC)cc2)CC[C@H]1CC(=O)Nc1nccs1 |  | inconclusive: 17.8 µM [inhibitor, partial curve]
O=C(CSc1ccccn1)NC1CC(=O)N(C2Cc3ccccc3C2)C1 (stereo not given) |  | inconclusive: 35.5 µM [inhibitor, partial curve, poor fit]
CCOc1ccc(-c2cc3c(=O)n(Cc4nc(-c5ccccc5OCC)oc4C)ccn3n2)cc1Cl | inconclusive: -31.7% [inhibitor] | 
O=S(=O)(NCc1ccc(Cl)cc1)c1ccc2[nH]c3c(c2c1)CCCC3 |  | inconclusive: 12.6 µM [inhibitor, partial curve, poor fit]
CCC(CC)C(=O)Nc1ccccc1SCc1cc(=O)c2cccc(C)c2[nH]1 | inconclusive: -36.9% [inhibitor] | 
NCc1cccc(-c2cc(C(F)(F)F)ccc2Cl)c1 |  | active: 89.1 µM
COc1ccc2c(c1)CC/C2=N\OC(=O)c1cc(Cl)ccc1SC | inactive: 15.1% | 
O=C(CN1C(=O)COc2ccc(C(=O)COc3ccccc3Cl)cc21)NCCc1ccccc1 |  | inconclusive: 3.55 µM [inhibitor, single point]
NC(=O)C1CCCCN1C(=O)c1nn(-c2ccccc2)c(=O)c2ccccc12 (stereo not given) | inactive: -10.2% | 
Cc1ccc(OC(C)C(=O)N2CCN(CCc3ccncc3)CC2)cc1C (stereo not given) |  | inconclusive: 5.62 µM [inhibitor, partial curve, poor fit]
CCOc1ccccc1CN1CCC2(CCN(C(=O)C3CCCC3)CC2)Oc2ccccc21 |  | inconclusive: 28.2 µM [inhibitor, single point]
O=C(Nc1nc2c(s1)CCCC2)C1CC(=O)N(c2n[nH]c3cccc(F)c23)C1 (stereo not given) |  | inconclusive: 3.16 µM [inhibitor, partial curve, poor fit]
CCOC(=O)c1cccc(NS(=O)(=O)c2ccc3[nH]c4c(c3c2)CCCC4)c1 |  | inconclusive: 39.8 µM [inhibitor, single point]
CC(C)(C)c1nc(C(=O)NCc2cccnc2)n2ccccc12 |  | active: 100 µM
CCOC(=O)c1ccc2nc(C)cc(Nc3ccc(OC(C)C)cc3)c2c1 |  | inconclusive: 17.8 µM [inhibitor, partial curve, poor fit]
Cc1ccc(N)c(O)c1 |  | inconclusive: 8.91 µM [inhibitor, full curve, poor fit]

SMILES | activity change, negative = inhibition | Potency
CC(c1nc(N)nc(N(C)C)n1)N(C)CCOc1ccc(Cl)cc1 (stereo not given) | inactive: 21% | 
CCOC(=O)C1CCN(C(c2ccc(OCC)cc2)c2c(O)cc(C)n(CCOC)c2=O)CC1 (stereo not given) |  | inconclusive: 31.6 µM [inhibitor, single point]
COc1ccc(CNS(=O)(=O)c2cc(Br)cc3c2N(C(C)=O)C(C)C3)cc1 (stereo not given) |  | inconclusive: 1.78 µM [inhibitor, partial curve, poor fit]
COc1cccc(NC(=O)O[C@@H]2CC[C@]3(C)C(CC[C@@H](O)[C@H]3CC(=O)N3CCCC3)[C@]2(C)CO)c1 (stereo not given in full) | inactive: -7.4% | 
O=c1cc(CN2CCCN(Cc3ccc(C(F)(F)F)cc3)CC2)nc2ccc(Cl)cn12 | inactive: 27.9% | 
CCC1CCCCN1C(=O)C1=CC(c2ccc(OC)cc2)=NS(=O)(=O)N1C (stereo not given) |  | inconclusive: 28.2 µM [inhibitor, partial curve, poor fit]
c1ccc([C@@H]2CNC[C@H]2COCC2CC2)nc1 |  | active: 15.8 µM
Fc1cc(F)cc(Cc2nc3nccc(-c4cccnc4)n3n2)c1 |  | inconclusive: 31.6 µM [inhibitor, partial curve, poor fit]
Cc1ncc(-c2ccc(S(=O)(=O)Nc3ccccc3C)cc2)o1 | inactive: -0.889% | 
CCOc1cccc(NC(=O)c2sc3nc(-c4ccc(F)cc4)ccc3c2N)c1 |  | inconclusive: 15.8 µM [inhibitor, partial curve, poor fit]
CCSc1ncc(Cl)c(C(=O)N(Cc2ccccc2)c2ccc(OC)cc2)n1 | inconclusive: -37.4% [inhibitor] | 
COc1ccc(OC)c(-c2cc(C(=O)Nc3ccc(F)cc3F)no2)c1 |  | inconclusive: 39.8 µM [inhibitor, single point]
Cc1cccc(C)c1NC(=O)CN(CC(=O)Nc1c(C)cccc1C)Cc1nc2ccccc2o1 | inactive: -0.0675% | 
COC(=O)C1=C(C)NC(=O)NC1c1cn(-c2ccccc2)nc1-c1ccc(OC)c(Br)c1 (stereo not given) |  | inconclusive: 28.2 µM [inhibitor, single point]
COCCOc1cc2c(cc1CO)OCO2 | inactive: 0.404% | 
O=C(Nc1nccs1)[C@@H]1C[C@@H](c2cccc(C(F)(F)F)c2)N(CC2CCOCC2)C1 |  | inconclusive: 44.7 µM [inhibitor, partial curve, poor fit]
Cc1ccc(S(=O)(=O)C(CNC(=O)COc2ccccc2)c2cccs2)cc1 (stereo not given) |  | inconclusive: 31.6 µM [inhibitor, partial curve, poor fit]
O=C(CSc1ncnc2sc3c(c12)CCC3)Nc1ncc(C(F)(F)F)cc1Cl | inactive: 9.68% | 
Cc1cccc(CC(=O)N2CCCC(CN3CCCC3)CC2)c1 (stereo not given) |  | inconclusive: 25.1 µM [inhibitor, single point]
CN(CC(=O)Nc1ccccc1)C(=O)c1cc2c(s1)CCCCC2 | inactive: 13.6% | 
COc1ccc(C(=O)N[C@@H]2CN(Cc3cccc(OC)c3)CCC[C@H]2O)cc1 |  | inconclusive: 25.1 µM [inhibitor, partial curve, poor fit]
CC(C)OC(=O)c1ccc(NC(=O)c2cc3ccccc3oc2=O)cc1 |  | inconclusive: 39.8 µM [inhibitor, single point]
